The full ranking holds about 13,000 compounds; the median of “IFI” is about 4, and the highest 2% start at about 17. This is one part of the list.
assay: GSK_TCMDC: Inhibition Frequency Index (IFI). The number of non-kinase HTS assays where a compound showed > 50 % inhibition, expressed as a percentage of the number of such assays in which the compound was tested (-0 is zero); type: functional

Question: With `COc1ccc2nccc(N3CCC(CCNCc4ccc5c(n4)NC(=O)CS5)CC3)c2n1` as the molecule, how does the IFI read?
Answer: 4.35%

Question: With `CC(=O)Nc1ccc(CN(Cc2ccc(F)cc2)Cc2cccc(Oc3ccccc3)c2)cc1` as the molecule, how does the IFI read?
Answer: 0.72%

Question: For `Cc1c(Cl)cccc1S(=O)(=O)Nc1cccc(CCN2CCC(N3CCCCC3)CC2)c1`, which IFI is on record?
Answer: 14.3%

Question: For `COc1ccc(CNCc2cccc(-c3ccc(-c4nc5ccccc5[nH]4)cc3)c2)cc1`, which IFI is on record?
Answer: 10.1%

Question: For `CC(C)CC(C)NC(=O)C1Cc2c([nH]c3cc(Cl)ccc23)C2(CCN(CCc3ccccc3)CC2)N1` (centres undefined), which IFI is on record?
Answer: 5.67%

Question: Which IFI does the source give for `Cc1ccc(NC(=S)N2CCCN(CCCCCNC(=O)/C=C/c3ccc(Cl)c(Cl)c3)CC2)cc1Cl` here?
Answer: 6.4%

Question: With `CCCN(Cc1nnc(-c2cccs2)o1)C(=O)CSc1nnnn1-c1ccc(C)c(C)c1` as the molecule, how does the IFI read?
Answer: 2.78%

Question: Which IFI does the source give for `N#Cc1ccc(-c2ccc(C(=O)NCCCCN3CCC(c4cc(Br)c5c(c4OCC(N)=O)CCCC5)CC3)cc2)cc1` here?
Answer: 8.66%

Question: Which IFI does the source give for `Cc1cccc(Nc2nccc(NCC(O)c3cccc(C(F)(F)F)c3)n2)c1` (centres undefined) here?
Answer: 14.3%

Question: For `C(=Cc1nc2ccccc2s1)c1ccc2c(c1)OCCO2`, which IFI is on record?
Answer: 4.84%

Question: For `CNC(=O)C1Cc2c([nH]c3cc(Cl)ccc23)C2(CCN(CCc3ccccc3)CC2)N1` (centres undefined), which IFI is on record?
Answer: 5%

Question: For `CC(C)c1cccc(OCC2CCN(c3ncc(C(=O)Nc4ccccc4)cc3Cl)CC2)c1`, which IFI is on record?
Answer: 0%

Question: For `O=C(Nc1ccc(CN2CCOCC2)cc1)c1ccc(-c2cc(Cl)ccc2Cl)o1`, which IFI is on record?
Answer: 3.53%

Question: Which IFI does the source give for `Cc1ccc(Nc2nc(C)cc(N3CCN(c4ccccc4)CC3)n2)cc1` here?
Answer: 14.8%

Question: With `C=CCc1cc(Cc2cnc(N)nc2N)cc(CCC)c1OC` as the molecule, how does the IFI read?
Answer: 1.42%

Question: With `O=C(c1ccc(-c2cccc(-c3nc4cc(F)ccc4[nH]3)c2)cc1)N1CCCCC1CN1CCC(O)C1` (centres undefined) as the molecule, how does the IFI read?
Answer: 2.61%

Question: With `Cc1cc(=NN=Cc2ccccc2Cl)c2cccc(C)c2[nH]1` as the molecule, how does the IFI read?
Answer: -0%

Question: For `COc1ccccc1N1CCN(c2cccc3c2nc(-c2cncc(C#N)c2)n3CCNCc2ccccc2)CC1`, which IFI is on record?
Answer: 3.45%

Question: For `O=C(Nc1ccc(Cl)c(Cl)c1)N1CCC(CNCc2cccc([N+](=O)[O-])c2)CC1`, which IFI is on record?
Answer: 1.46%

Question: Which IFI does the source give for `CCCCCCCCCN1CC[C@@H](CCCc2ccnc3ccc(O)cc23)[C@@H](CC)C1` here?
Answer: 15.2%

Question: For `CCN1CCN(c2cc(C)c3cc(NC(=O)c4ccc(OC)c([N+](=O)[O-])c4)ccc3n2)CC1`, which IFI is on record?
Answer: 5.22%

Question: With `COc1ccc([N+](=O)[O-])cc1N(Cc1ccccc1-c1ccccc1)S(=O)(=O)c1ccc(C(F)(F)F)cc1` as the molecule, how does the IFI read?
Answer: 1.44%

Question: With `O=C(/C=C/c1ccc(Cl)c(Cl)c1)NCCCCCN1CCC(NC(=O)Nc2ccc(C(F)(F)F)cc2)C1` (centres undefined) as the molecule, how does the IFI read?
Answer: 12%

Question: Which IFI does the source give for `CC(C)(C)c1ccc(OCC(=O)NC2CCN(c3ccnc4cc(Cl)ccc34)C2)cc1` (centres undefined) here?
Answer: 9.23%

Question: With `O=C(Nc1cccc(-c2ccc(-c3nc4cc(C(F)(F)F)ccc4[nH]3)cc2)c1)c1c[nH]cn1` as the molecule, how does the IFI read?
Answer: 6.48%

Question: For `O=C1c2ccccc2C(=O)N1c1ccc(S(=O)(=O)N2CCOCC2)cc1`, which IFI is on record?
Answer: -0%

Question: Which IFI does the source give for `Oc1ccc(CCNc2nc(NCCCOc3ccccc3-c3ccc(C(F)(F)F)cc3)nc(N3CCNCC3)n2)cc1` here?
Answer: 17.2%

Question: For `COc1ccc2nccc([C@@H](O)CN3CCC(NCc4cc5ccccc5s4)CC3)c2c1`, which IFI is on record?
Answer: 2.84%

Question: Which IFI does the source give for `COc1ccc(CNCc2cccc(-c3cccc(-c4nc5cccc(C)c5[nH]4)c3)c2)cc1` here?
Answer: 9.62%

Question: Which IFI does the source give for `CCNc1cc(C)nc(Nc2ccc(NC(=O)Cc3ccc(OC)cc3)cc2)n1` here?
Answer: 13.5%

Question: Which IFI does the source give for `Cc1ccc(C)c(Cn2ccc3nc(Cl)nc(Cl)c32)c1` here?
Answer: 4.2%

Question: Which IFI does the source give for `O=C(Nc1cccc(-c2nn3ccccc3c2-c2ccnc(Nc3cccc(F)c3)n2)c1)c1c(F)ccc(F)c1F` here?
Answer: 1.94%

Question: For `O=C(NCc1ccc(F)cc1)c1cnc(N2CCN(c3ccncc3)CC2)c(Cl)c1`, which IFI is on record?
Answer: -0%

Question: For `CC(C)(C)c1ccc(CN2CCC(NC(=O)c3ccc(-c4cccc(Cl)c4)s3)CC2)cc1`, which IFI is on record?
Answer: 12.1%

Question: With `COc1ccc(-c2ccc(NC(=O)c3ccc(F)cc3)cc2)cc1CN1CCCN(C)CC1` as the molecule, how does the IFI read?
Answer: 2.97%

Question: With `CC(C)(C)c1cc(C(=O)N2CCN(c3ncccc3C(F)(F)F)CC2)n(Cc2ccccc2)n1` as the molecule, how does the IFI read?
Answer: 1.54%

Question: For `Cc1cc(Nc2ncc3c(n2)N(C2CCC2)CC3)ccc1N1CCN(C)CC1`, which IFI is on record?
Answer: 11.1%

Question: For `CC(C)c1ccc(NC(=O)c2ccc(CN3CCCN(Cc4cccc(Cl)c4)CC3)cc2)cc1`, which IFI is on record?
Answer: 13.5%

Question: Which IFI does the source give for `CN(C)C1CCN(Cc2ccc(N3CCN(Cc4cccc5[nH]ccc45)CC3)nc2)CC1` here?
Answer: -0%

Question: For `O=C(Nc1ccc(Cn2ncc(N3CCNCC3)c(Cl)c2=O)cc1)Nc1ccc(-c2ccccc2)cc1`, which IFI is on record?
Answer: 6.85%

Question: For `c1cc2[nH]c(CCCCCc3nc4cc(C5=N[C@@H]6CCCC[C@@H]6N5)ccc4[nH]3)nc2cc1C1=N[C@@H]2CCCC[C@@H]2N1`, which IFI is on record?
Answer: 1.45%

Question: Which IFI does the source give for `NC(=O)COc1cccc2c1CCN(CCN1CCC(NC(=O)c3ccc(-c4ccc(Cl)cc4)cc3)CC1)C2` here?
Answer: 6.2%

Question: Which IFI does the source give for `COC[C@H]1CCCN1Cc1ccc(-c2ccc(-c3nc4ccccc4[nH]3)s2)cc1` here?
Answer: 0.91%

Question: With `O=C(C=Cc1ccc(Cl)c(Cl)c1)NCCCCCN1CCC(CCNC(=O)c2cccc3ccccc23)CC1` as the molecule, how does the IFI read?
Answer: 3.82%

From ChEMBL document CHEMBL1157539, “Thousands of chemical starting points for antimalarial lead identification” (Nature, 2010)
